# Experimental data from article PMC9911399, “Two distinct binding modes provide the RNA-binding protein RbFox with extraordinary sequence specificity”.
# Where a chain is given by its changes, count along the chain named. The list shows a part of the results.
# T1: RBFOX1 RRM RbFoxmut (Fox-RRM*) (Homo sapiens, UniProt Q9NWB1 109-208, R118D;E147R;N151S;E152T)
# T1 sequence: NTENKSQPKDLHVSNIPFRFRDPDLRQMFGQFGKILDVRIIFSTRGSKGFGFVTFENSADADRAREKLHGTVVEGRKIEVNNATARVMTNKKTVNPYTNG
# B1: UGAAGGC (DNA:RNA)
# RNA: GGGAGACCGGAAUUCAGAUUGUCCUGAAGGCUUAAAUCCCGUCGUAGCCACCA
# DNA 1: CAATCTGAATTCCGGTCTCCC
# DNA 2: TGGTGGCTACGACGGGATT
# B2: UGUAUCG (DNA:RNA)
# RNA: B1 RNA with A27U, G29U, G30C, C31G
# DNA 1: CAATCTGAATTCCGGTCTCCC
# DNA 2: TGGTGGCTACGACGGGATT
# B3: GCUAGGC (DNA:RNA)
# RNA: B1 RNA with U25G, G26C, A27U
# DNA 1: CAATCTGAATTCCGGTCTCCC
# DNA 2: TGGTGGCTACGACGGGATT
# B4: AGGGACC (DNA:RNA)
# RNA: B1 RNA with U25A, A27G, A28G, G29A, G30C
# DNA 1: CAATCTGAATTCCGGTCTCCC
# DNA 2: TGGTGGCTACGACGGGATT
# B5: AGUACCU (DNA:RNA)
# RNA: B1 RNA with U25A, A27U, G29C, G30C, C31U
# DNA 1: CAATCTGAATTCCGGTCTCCC
# DNA 2: TGGTGGCTACGACGGGATT
# B6: CGAGCUA (DNA:RNA)
# RNA: B1 RNA with U25C, A28G, G29C, G30U, C31A
# DNA 1: CAATCTGAATTCCGGTCTCCC
# DNA 2: TGGTGGCTACGACGGGATT
# B7: UCGCUGA (DNA:RNA)
# RNA: B1 RNA with G26C, A27G, A28C, G29U, C31A
# DNA 1: CAATCTGAATTCCGGTCTCCC
# DNA 2: TGGTGGCTACGACGGGATT
# B8: ACAUUUU (DNA:RNA)
# RNA: B1 RNA with U25A, G26C, A28U, G29U, G30U, C31U
# DNA 1: CAATCTGAATTCCGGTCTCCC
# DNA 2: TGGTGGCTACGACGGGATT
# B9: UCGUAUU (DNA:RNA)
# RNA: B1 RNA with G26C, A27G, A28U, G29A, G30U, C31U
# DNA 1: CAATCTGAATTCCGGTCTCCC
# DNA 2: TGGTGGCTACGACGGGATT
# Target: T1, RBFOX1 RRM RbFoxmut (Fox-RRM*)
# Test: EMSA; HiTS-Eq, 1 nM pool, 10 min; buffer printed only for the single-RNA assays: 10 mM Tris pH 7.5, 150 mM NaCl, 3.4 mM EDTA, 0.001% NP-40, 30 C
# Conditions: tags: His6 N-terminal (pET28a); label: 5' 32P
# Method in brief: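 Purified RbFox RRM (wild type or mutant) was equilibrated for 10 min in 50 µL with 1 nM of a 5′-radiolabelled pool of RNA with 7 randomized nucleotides, its flanks annealed to DNA oligonucleotides, across increasing protein concentrations. Free RNA was separated by 8% native PAGE, excised, reverse-transcribed, PCR-barcoded and sequenced on an Illumina HiSeq 2500. Relative association constants came from read-count changes of each variant against the control reaction, normalised to the cognate motif.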
row,Binder,binding signal
1,B1,0.0677 KA relative to UGCAUGU
2,B2,0.648 KA relative to UGCAUGU
3,B3,0.0891 KA relative to UGCAUGU
4,B4,0.0744 KA relative to UGCAUGU
5,B5,0.0855 KA relative to UGCAUGU
6,B6,0.124 KA relative to UGCAUGU
7,B7,0.0669 KA relative to UGCAUGU
8,B8,0.12 KA relative to UGCAUGU
9,B9,0.113 KA relative to UGCAUGU
